# Laboratory results published in PubChem BioAssay (NCATS).
# Several values for one entry are separate records, joined by “and”; a condition that tells them apart may be missing. Identical values can stand only once. Inconclusive results, whose numbers are uncertain, are shown with a selection of clear calls. For some assays here: Potencies of inconclusive entries are doubtful fits and often do not repeat. Activity calls are given as the source filed them. The call rests on the fitted dose curve; in most records, active means well fitted curve in the direction sought with a large enough effect; inconclusive means small, poorly fitted or top-dose-only effect, or another doubt; inactive means no such curve, though single readings can be large; an effect the other way counts as inactive or inconclusive.
# What was measured:
# [1] = Viability qHTS for spleen associated tyrosine kinase inhibitor (SYKi) naive MV4-11 cells (AID 1963823); settings: MV4-11 AML viability, CellTiter-Glo luminescence, 72 h; viability (% of control): at 45 µM (top of the series); further: nearly all actives have a fitted effect of over 40% in size
# Method in brief: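 Viability of MV4-11 AML cells lacking prior SYK inhibitor exposure is scored by CellTiter-Glo luminescence following 72 hr compound incubation at 37 C, 5% CO2, seeded at 500 cells per well.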
# [2] = Viability qHTS for spleen associated tyrosine kinase inhibitor (SYKi) drug resistant MV4-11 cells (AID 1963824); settings: SYKi-resistant MV4-11 viability, CellTiter-Glo, 72 h; series mostly up to 45 µM; further: nearly all actives have a fitted effect of over 35% in size
# Method in brief: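 SYK-inhibitor-resistant MV4-11 AML cells were seeded at 500 per well onto compound and cultured 72 hours (37 °C, 5% CO2). CellTiter-Glo was then added, and after 10 min at room temperature, luminescence gave viability.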
# [3] = Quantitative highthroughput screen to assess conditional lethalithy of NOMO1 cells grown in RPMI1640 with untreated serum (RPMI+s) (AID 1963876); settings: NOMO1 AML cells in RPMI+serum, CellTiter-Glo viability, 48 h; viability: at 45.8 µM (top of the series); further: nearly all actives have a fitted effect of over 35% in size;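 on Viability: 100% = DMSO wells and 0% = empty wells without cells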
# Method in brief: (§1)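 Each medium arm—HPLM with 10% dialyzed FBS, or RPMI1640 with 5 mM glucose and 10% untreated or dialyzed FBS—was screened against an 11-point, 3-fold compound titration for 48 h at 37 °C, with CellTiter-Glo luminescence as endpoint.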
# [4] = Quantitative highthroughput screen to assess conditional lethalithy of SEM cells grown in RPMI1640 with unreated serum (RPMI+s) (AID 1963883); settings: SEM B-ALL cells, CellTiter-Glo viability, 48 h; viability: at 45.8 µM (top of the series); further: nearly all actives have a fitted effect of over 35% in size;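 on Viability: 100% = DMSO wells and 0% = empty wells without cells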
# Method in brief: as §1
# [5] = Quantitative highthroughput screen to assess conditional lethalithy of SEM cells grown in RPMI1640 with dialyzed fetal bovine serum (RPMI+ds) (AID 1963884); settings: SEM B-ALL cells, RPMI+dialyzed FBS, CellTiter-Glo viability, 48 h; viability: at 45.8 µM (top of the series); further: nearly all actives have a fitted effect of over 35% in size;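 on Viability: 100% = DMSO control wells and 0% = empty wells without cells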
# Method in brief: as §1
# [6] = Cellular viability qHTS for adrenocortical cancer (ACC) cell line NCI-H295R (AID 1963990); settings: CellTiter-Glo ATP luminescence, 48 h; activity change, negative = viability loss: at 46.1 µM (top of the series); further: nearly all actives have a fitted effect of over 60% in size;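 on activity change, negative = viability loss: 0% = DMSO only wells and -100% = full killing with cytotoxic reference compound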
# Method in brief: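 CellTiter-Glo ATP luminescence, read 48 h after compound addition, measured viability of NCI-H295R adrenocortical cells grown serum-free with ITS. Final concentrations spanned up to 46 uM. Data normalized to DMSO and doxorubicin, fitted for IC50 and maximal response.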
# [7] = Quantitative highthroughput screen to assess conditional lethalithy of NOMO1 cells grown in RPMI1640 with dialyzed fetal bovine serum (RPMI+ds) (AID 1963877); settings: NOMO1 in RPMI+dialyzed FBS viability, ATP luminescence, 48 h; series mostly up to 45.8 µM; further: nearly all actives have a fitted effect of over 30% in size;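 on Viability: 100% = DMSO control wells and 0% = empty wells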
# Method in brief: as §1
# [8] = Quantitative highthroughput screen to assess conditional lethalithy of NOMO1 cells grown in Human Plasma-Like Medium with dialyzed fetal bovine serum (HPLM+ds) (AID 1963878); settings: NOMO1 AML cells in HPLM+ds, CellTiter-Glo viability, 48 h; viability: at 45.8 µM (top of the series); further: nearly all actives have a fitted effect of over 35% in size;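 on Viability: 100% = DMSO wells and 0% = empty wells on each plate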
# Method in brief: as §1
# [9] = Quantitative highthroughput screen to assess conditional lethalithy of P12 Ichikawa cells grown in Human Plasma-Like Medium with dialyzed fetal bovine serum (HPLM+ds) (AID 1963879); settings: ATP luminescence, 48 h; Potency: viability; series mostly up to 45.8 µM; further: nearly all actives have a fitted effect of over 35% in size
# Method in brief: as §1
# [10] = Quantitative highthroughput screen to assess conditional lethalithy of P12 Ichikawa cells grown in RPMI1640 with dialyzed fetal bovine serum (RPMI+ds) (AID 1963880); settings: ATP luminescence, 48 h; Potency: P12-Ichikawa viability; series mostly up to 45.8 µM; further: nearly all actives have a fitted effect of over 35% in size;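 on Viability: 100% = DMSO wells and 0% = empty wells on each plate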
# Method in brief: as §1
# [11] = Quantitative highthroughput screen to assess conditional lethalithy of P12 Ichikawa cells grown in RPMI1640 with untreated serum (RPMI+s) (AID 1963881); settings: ATP luminescence, 48 h; Potency: viability; series mostly up to 45.8 µM; further: nearly all actives have a fitted effect of over 35% in size;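 on Viability: 100% = DMSO wells and 0% = empty wells without cells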
# Method in brief: as §1
# [12] = Quantitative highthroughput screen to assess conditional lethalithy of SEM cells grown in Human Plasma-Like Medium with dialyzed fetal bovine serum (HPLM+ds) (AID 1963882); settings: SEM B-ALL cells in HPLM+ds, CellTiter-Glo viability, 48 h; series mostly up to 45.8 µM; further: nearly all actives have a fitted effect of over 35% in size
# Method in brief: as §1
# [13] = Cellular viability qHTS for adrenocortical cancer (ACC) cell line SW-13 (AID 1963989); settings: SW-13 ACC cells viability, CellTiter-Glo, 48 h; activity (max response): stronger effect = lower value; further: nearly all actives have a fitted effect of over 65% in size;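 on activity (max response): cells grown in serum-free medium with ITS supplement; on the % scale 0 is the no-effect control and ±100 the full control effect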
# Method in brief: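 Viability was read as CellTiter-Glo luminescence after 48 h compound treatment (up to 46 uM final) of SW-13 cells grown serum-free; titration curves were fit with a four-parameter logistic model to give IC50 and efficacy.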
# Potency means the concentration at half of the fitted maximal effect; tags describe the fitted curve by direction and shape.
SMILES,Potency [1],Potency [2],Potency [3],Potency [4],Potency [5],Potency [6],Potency [7],Potency [8],Potency [9],Potency [10],Potency [11],Potency [12],activity (max response) [13],Potency [13]
C=C(C)[C@@H]1CC[C@]2(C(=O)O)CC[C@]3(C)[C@H](CC[C@@H]4[C@@]5(C)CC[C@H](O)C(C)(C)[C@@H]5CC[C@]43C)[C@@H]12,"inconclusive: 5.25 µM [cytotoxic, partial curve]",active: 2.95 µM,inactive,"inconclusive: 2.35 µM [cytotoxic, partial curve, poor fit]","inconclusive: 2.09 µM [cytotoxic, partial curve, poor fit]",inactive,–,–,–,–,–,–,–,–
Cc1cccc(-c2[nH]ncc2-c2ccc3ncccc3n2)n1,"inconclusive: 14.8 µM [cytotoxic, partial curve, poor fit]","inconclusive: 4.17 µM [cytotoxic, partial curve, poor fit]",–,"inconclusive: 23.5 µM [cytotoxic, partial curve]","inconclusive: 20.9 µM [cytotoxic, partial curve]",–,active: 18.7 µM,"inconclusive: 20.9 µM [cytotoxic, partial curve]","inconclusive: 23.5 µM [cytotoxic, single point]","inconclusive: 20.9 µM [cytotoxic, single point]","inconclusive: 18.7 µM [cytotoxic, partial curve]","inconclusive: 29.6 µM [cytotoxic, single point]",–,–
NC1CCC(N[C@@H]2C[C@H]2c2ccccc2)CC1 (some centres undefined),"inconclusive: 0.0209 µM [cytotoxic, full curve, poor fit]","inactive and inconclusive: 23.5 µM [cytotoxic, partial curve, poor fit]",inactive,–,inactive,"inconclusive: 35.5 µM [cytotoxic, single point]",–,–,–,–,inactive,–,inactive: -23.4%,–
Clc1ccc(C(Cn2ccnc2)OCc2ccsc2Cl)c(Cl)c1 (centres undefined),active: 8.33 µM,active: 9.34 µM,–,"inconclusive: 33.2 µM [cytotoxic, single point]","inconclusive: 23.5 µM [cytotoxic, single point]",–,"inconclusive: 18.7 µM [cytotoxic, partial curve, poor fit]",inactive,"inconclusive: 23.5 µM [cytotoxic, single point]","inconclusive: 33.2 µM [cytotoxic, single point]","inconclusive: 23.5 µM [cytotoxic, single point]","inconclusive: 33.2 µM [cytotoxic, single point]",–,active: 18.4 µM
CS(=O)(=O)c1ccc(-c2cnc(N)c(C(=O)Nc3ccccc3)n2)cc1,"inconclusive: 2.91 µM [cytotoxic, full curve]",active: 2.91 µM,–,active: 9.35 µM,active: 8.33 µM,"inconclusive: 25.1 µM [cytotoxic, single point]","inconclusive: 11.8 µM [cytotoxic, full curve]","inconclusive: 7.43 µM [cytotoxic, full curve]",inactive,"inconclusive: 10.5 µM [cytotoxic, full curve]",active: 8.33 µM,–,–,"inconclusive: 15.8 µM [cytotoxic, partial curve, poor fit]"
C[C@]12CC[C@@H]3c4ccc(O)cc4C[C@@H](CCCCCCCCCS(=O)CCCC(F)(F)C(F)(F)F)[C@H]3[C@H]1CC[C@H]2O (some centres undefined),"inconclusive: 5.25 µM [cytotoxic, full curve]",active: 4.68 µM,inactive,–,inactive,–,–,–,–,inactive,–,–,–,–
Cc1csc(NC(=O)c2sc3nc4c(c(C(F)(F)F)c3c2N)CCC4)n1,"inconclusive: 16.6 µM [cytotoxic, partial curve]","inconclusive: 16.6 µM [cytotoxic, partial curve]",inactive,–,–,–,–,–,–,–,inactive,–,–,–
CN(C(=O)c1ccc(F)cc1C(F)(F)F)C1CCN(c2nnc(-c3ccnn3C)c3ccccc23)CC1,"inconclusive: 9.2 µM [cytotoxic, partial curve] and inconclusive: 16.6 µM [cytotoxic, partial curve]","inconclusive: 18.6 µM [cytotoxic, partial curve]",–,–,"inconclusive: 0.332 µM [rising, full curve, poor fit]",–,"inconclusive: 29.6 µM [cytotoxic, single point]","inconclusive: 0.0019 µM [rising, full curve, poor fit]","inconclusive: 33.2 µM [cytotoxic, single point]","inconclusive: 37.2 µM [cytotoxic, single point]","inconclusive: 37.2 µM [cytotoxic, single point]",–,inactive: -13.3%,–
N#Cc1ccc(C(c2ccc(C#N)cc2)n2cncn2)cc1,inactive,inactive,inactive,"inconclusive: 2.64 µM [cytotoxic, partial curve, poor fit]",inactive,–,–,–,–,–,–,–,–,–
O=C(O)c1ccc(O)c2ncc(N3CCOCC3)cc12,"inconclusive: 18.6 µM [cytotoxic, partial curve, poor fit]","inconclusive: 26.3 µM [cytotoxic, partial curve, poor fit]",–,"inconclusive: 26.4 µM [cytotoxic, single point]",active: 18.7 µM,–,inactive,"inconclusive: 23.5 µM [cytotoxic, partial curve]","inconclusive: 37.2 µM [cytotoxic, single point]","inconclusive: 29.6 µM [cytotoxic, single point]","inconclusive: 29.6 µM [cytotoxic, single point]","inconclusive: 33.2 µM [cytotoxic, single point]",–,–
Cc1cccc(-c2[nH]c(C(C)(C)C)nc2-c2ccc3c(c2)OCO3)n1,"inconclusive: 1.64 µM [cytotoxic, full curve] and active: 2.35 µM",active: 1.46 µM and active: 2.09 µM,active: 8.33 µM,–,–,–,–,–,–,active: 11.8 µM,–,active: 8.33 µM,–,active: 7.94 µM
COc1ccc(Cn2ccc3ccc(C(=O)NO)cc32)cc1,"inconclusive: 9.2 µM [cytotoxic, partial curve] and active: 14.8 µM",active: 20.6 µM and active: 18.6 µM,–,"inconclusive: 29.6 µM [cytotoxic, single point]","inconclusive: 33.2 µM [cytotoxic, single point]","inconclusive: 35.5 µM [cytotoxic, single point]","inconclusive: 37.2 µM [cytotoxic, single point]","inconclusive: 18.7 µM [cytotoxic, partial curve]","inconclusive: 18.7 µM [cytotoxic, partial curve]","inconclusive: 16.6 µM [cytotoxic, partial curve, poor fit]","inconclusive: 14.8 µM [cytotoxic, partial curve, poor fit]","inconclusive: 29.6 µM [cytotoxic, single point]",–,"inconclusive: 31.6 µM [cytotoxic, partial curve, poor fit]"
CC(=O)OCCN1C(=O)c2c(C)nc3ccc(S(=O)(=O)N4CCOCC4)cc3c2C1=O,inactive,inactive,–,inactive,inactive,–,"inconclusive: 0.526 µM [cytotoxic, full curve]","inconclusive: 0.418 µM [cytotoxic, full curve]",active: 2.64 µM,active: 3.32 µM,"inconclusive: 2.64 µM [cytotoxic, full curve]",–,–,–
COc1ccc(C[C@@H](C)[C@@H](C)Cc2ccc(OC)c(OC)c2)cc1OC,active: 6.61 µM,active: 11.8 µM,–,–,–,–,active: 2.64 µM,active: 0.833 µM,–,–,–,–,–,–
C[C@H](NC(=O)c1sccc1OCc1ccc(Cl)cc1)c1ccccc1,"inconclusive: 7.42 µM [cytotoxic, partial curve]","inconclusive: 7.42 µM [cytotoxic, full curve]",inactive,"inconclusive: 8.33 µM [cytotoxic, partial curve, poor fit]",–,–,–,–,–,–,–,"inconclusive: 23.5 µM [cytotoxic, single point]",–,active: 25.1 µM
O=c1[nH]cnc2[nH]ncc12,inactive,"inconclusive: 29.9 µM [cytotoxic, single point]",–,–,"inconclusive: 23.5 µM [cytotoxic, single point]",–,inactive,"inconclusive: 16.6 µM [cytotoxic, partial curve]","inconclusive: 23.5 µM [cytotoxic, partial curve]",inactive,inactive,"inconclusive: 37.2 µM [cytotoxic, single point]",–,–
Cn1c(NCCN(CCO)CCCc2ccc([N+](=O)[O-])cc2)cc(=O)n(C)c1=O,inactive,inactive,–,"inconclusive: 16.6 µM [cytotoxic, partial curve]","inconclusive: 20.9 µM [cytotoxic, partial curve]",–,"inconclusive: 10.5 µM [cytotoxic, partial curve, poor fit]","inconclusive: 23.5 µM [cytotoxic, single point]","inconclusive: 16.6 µM [cytotoxic, partial curve]","inconclusive: 18.7 µM [cytotoxic, partial curve]","inconclusive: 18.7 µM [cytotoxic, partial curve]","inconclusive: 20.9 µM [cytotoxic, single point]",–,–
